Screen size: about 140,000 compounds; about 240 (0.17%) were called active. This list was built around the results that the source calls inconclusive (neither active nor inactive); the mix of calls is not that of the screen. Calls come from the whole dose curve; as a rule, active = well fitted inhibition curve with a large enough effect; inconclusive = small, poorly fitted or top-dose-only effect; inactive = no such curve, though single readings can be large or run the other way. A potency beside an inconclusive call is a rough fit, not a confirmed value.
assay: Primary qHTS assay for inhibitors of alpha-synuclein gene (SNCA) expression; settings: HEK-293 SNCA-luciferase knock-in, luminescence, 24 h; activity change, negative = inhibition: at 57.2 µM (top of the series) unless noted; note: nearly all actives have a fitted effect of over 45% in size;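 for activity change, negative = inhibition: plate controls were DMSO cells for no effect and cell-free wells for full effect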
Potency is the fitted concentration of half-maximal effect; tags give direction and shape of the fitted curve.

SMILES	Potency	activity change, negative = inhibition
Cc1ccc(-c2noc(CCCC(=O)N3CCc4nc5cc[nH]n5c(=O)c4C3)n2)cc1	inconclusive: 5.01 µM [inhibitor, single point]	–
COc1ccc(CC(=O)Nc2cc(-c3cn4cccnc4n3)ccc2C)cc1OC	inconclusive: 39.8 µM [inhibitor, single point]	–
O=S(=O)(c1ccccc1)N1CCC(c2nc(-c3ccccc3)no2)C1 (stereo unspecified)	inconclusive: 6.31 µM [inhibitor, single point]	–
CN1CCN(C(=O)c2cncc(N[C@H]3C[C@@H]4OCC[C@H]34)n2)CC1	inconclusive: 3.16 µM [inhibitor, full curve, poor fit]	–
COCc1nc(C2CCCN(C(=O)c3ccsc3)C2)no1 (stereo unspecified)	inconclusive: 15.8 µM [inhibitor, single point]	–
Cc1cc(C)n(-c2ccc(NC(=O)C3CCCCN3C(=O)c3ccc[n+]([O-])c3)cc2)n1 (stereo unspecified)	inconclusive: 2.82 µM [inhibitor, partial curve, poor fit]	–
Cc1cccc(NC(c2ccccc2C)c2ccc3ccc(C)nc3c2O)n1 (stereo unspecified)	inconclusive: 11.2 µM [inhibitor, partial curve, poor fit]	–
COc1ccc(C(=O)NCc2nnc3c(-c4nc(C)no4)cccn23)cc1	–	inactive: -2.08%
COc1ccc(Nc2ccnc(N3CCCC(C(=O)NCc4cccc(F)c4)C3)n2)cc1 (stereo unspecified)	inconclusive: 39.8 µM [inhibitor, single point]	–
COc1ccccc1Nc1ccnc(N2CCCC(C(=O)NCc3ccc(Cl)cc3)C2)n1 (stereo unspecified)	inconclusive: 10 µM [inhibitor, partial curve, poor fit]	–
O=c1[nH]c2ccccc2n1C1CCN(c2nccc(-c3cccnc3)n2)CC1	inconclusive: 39.8 µM [inhibitor, single point]	–
CCn1cc(C(=O)NCc2ccc(C)cc2)c(=O)c2cc(S(=O)(=O)N(C)C3CCCCC3)ccc21	inconclusive: 39.8 µM [inhibitor, single point]	–
Cc1nnc(-c2cc(-c3ccc(CO)cc3)ccn2)n1CCN1CCOCC1	–	inactive: -0.908% [at 87.6 µM]
Cc1cccc(OCC(O)Cn2c(=N)n(CCN3CCCCC3)c3ccccc32)c1 (stereo unspecified)	inconclusive: 31.6 µM [inhibitor, single point]	–
COCc1nc(-c2ccc(OC3CN(C(=O)NC(C)C)C3)cc2)no1	–	inactive: -14.4%
O=C(Nc1ccc2c(c1)OCCO2)C1(CCO)CCN(c2ncccn2)C1 (stereo unspecified)	–	inactive: -7.21%
COc1ccc(S(=O)(=O)c2c(SC)nn(CC(=O)Nc3cccc(C)c3C)c2N)cc1	inconclusive: 17.8 µM [inhibitor, partial curve, poor fit]	–
COC(=O)c1cccc(NC(=O)c2nsc3ccccc23)c1	inconclusive: 5.62 µM [inhibitor, partial curve, poor fit]	–
COc1ccccc1N1CCN([C@@H]2[C@H](O)[C@H](CO)O[C@@H]2CN(Cc2ccc(F)cc2)Cc2ccc(F)cc2)CC1	inconclusive: 35.5 µM [inhibitor, single point]	–
O=C(Nc1ccc(Cl)cc1Cl)c1cnn2c1CN(C(=O)c1ccccc1F)CC2	inconclusive: 5.62 µM [inhibitor, full curve, poor fit]	–
O=C(O)c1ccc(CN2CCC(N3CCCC(C(=O)N4CCCC4)C3)CC2)cc1 (stereo unspecified)	inconclusive: 39.8 µM [inhibitor, single point]	–

SMILES	Potency	activity change, negative = inhibition
O[C@H]1[C@H](NCc2cnc3ccccc3c2)[C@@H](c2ccc(N3CCOCC3)nc2)C[C@H]1O	inconclusive: 0.891 µM [inhibitor, single point]	–
CCOc1ccc(CC(=O)NCCn2ccn3nc(-c4ccc(C)cc4C)cc3c2=O)cc1	–	inactive: -14.1%
COc1cc(NC(=O)Cn2c(N3CCC(C)CC3)nc(C)cc2=O)cc(OC)c1	inconclusive: 39.8 µM [inhibitor, single point]	–
CN1C(=O)c2ccccc2Sc2ccc(NC(=O)NCc3cccc(Cl)c3)cc21	inconclusive: 39.8 µM [inhibitor, single point]	–
Cc1ccc(C(=O)Oc2c(S(=O)(=O)c3ccccc3)c(C)nn2-c2ccccc2)cc1	–	inactive: 8.69%
COc1ccc(-n2c(-c3ccc(C)cc3)cc3c2CC(C)(C)CC3=O)c(OC)c1	inconclusive: 39.8 µM [inhibitor, single point]	–
Cc1ccc(NC(=O)CCNS(=O)(=O)c2cccc3nonc23)cc1Cl	inconclusive: 3.55 µM [inhibitor, full curve]	–
COCCN1CC(CO)C2(CCN(Cc3ccccc3C(F)(F)F)CC2)C1 (stereo unspecified)	inconclusive: 2.82 µM [inhibitor, partial curve, poor fit]	–
NC(=O)c1cccc(-c2cc3c(cn2)CN(Cc2ccncc2)CCN3)c1	–	inactive: 7.1% [at 87.6 µM]
COc1cc(C2c3c(-c4ccc(C)cc4)n[nH]c3C(=O)N2c2ccc(F)cc2)ccc1O (stereo unspecified)	inconclusive: 39.8 µM [inhibitor, single point]	–
Oc1ccccc1CN1CCOC[C@H]1c1ncc(-c2ccc(C(F)(F)F)cc2)[nH]1	–	inactive: -16.2% [at 87.6 µM]
Cc1ccc(CNC(=O)c2cc(NC(=O)C(C)C)cc3nc(C)ccc23)cc1	–	inactive: 3.07%
CC1(c2ccccc2)N(Cc2ccccc2F)C(=O)OC12CCN(Cc1cccc(O)c1)CC2 (stereo unspecified)	inconclusive: 39.8 µM [inhibitor, single point]	–
COc1cc(NC(=O)N2CCC3(CC2)Nc2cc(F)ccc2-n2cccc23)cc(OC)c1OC	inconclusive: 3.16 µM [inhibitor, full curve, poor fit]	–
COc1ccc(Cl)cc1C(=O)NC1CCN(c2cc(-c3cccs3)[nH]n2)CC1	inconclusive: 39.8 µM [inhibitor, single point]	–
CCOC(=O)N1CCc2c(sc3c2c(=O)n(CCc2ccccc2)c(=O)n3CC(=O)Nc2cccc(C)c2)C1	inconclusive: 3.16 µM [inhibitor, single point]	–
Cc1ccc(C(=O)N[C@H]2CO[C@H]3[C@@H]2OC[C@@H]3Nc2nccc(-c3ccc(-c4ccccc4)cc3)n2)cc1	inconclusive: 39.8 µM [inhibitor, single point]	–
CCC(=O)NCC1Cn2cccc2C(=O)N1Cc1ccccc1 (stereo unspecified)	inconclusive: 2.24 µM [inhibitor, partial curve, poor fit]	–
CCCc1noc(-c2cn(C3CCN(C(=O)c4ccc(OC)nc4OC)CC3)nn2)n1	inconclusive: 3.55 µM [inhibitor, single point]	–
CC(C)NC(=O)c1nc(-c2cccc(C(F)(F)F)c2)c2cnccn12	–	inactive: -5.46%
CN(Cc1ccc(C(F)(F)F)cc1)Cc1ccccc1C(F)(F)F	–	inactive: 0.458% [at 87.6 µM]

SMILES	Potency	activity change, negative = inhibition
Cc1ccc(C)c(NC(=O)CN2C(=O)c3cccnc3Oc3ccc(C)cc32)c1	inconclusive: 39.8 µM [inhibitor, single point]	–
CN1Cc2cccn2CC1CNC(=O)c1nn(C)c2ccccc12 (stereo unspecified)	–	inactive: 0.202%
Cc1ccc(CSc2nc3ccc(NC(=O)COc4ccc(F)cc4)cc3s2)cc1	inconclusive: 2.82 µM [inhibitor, partial curve, poor fit]	–
Cc1cc(Cl)ccc1OCC(=O)Nc1c(C(=O)c2ccccc2)oc2ccccc12	inconclusive: 3.16 µM [inhibitor, partial curve, poor fit]	–
O=C(CSc1ncc(-c2ccccc2)[nH]1)Nc1cccc(C(F)(F)F)c1	–	inactive: -23.7%
CN1CC(=O)N(C2CCCNC2)Cc2c(NCc3ccc4c(c3)OCO4)ncnc21 (stereo unspecified)	inconclusive: 12.6 µM [inhibitor, partial curve, poor fit]	–
O=C(C1CN(c2ccc(Cl)cc2)C(=O)N1)N1CCN(Cc2ccccc2)CC1 (stereo unspecified)	inconclusive: 39.8 µM [inhibitor, single point]	–
O=C(NCc1cccc(Cl)c1)[C@@H]1CCCN1c1nccc(Nc2ccccc2Cl)n1	inconclusive: 5.01 µM [inhibitor, full curve, poor fit]	–
CC(C)Sc1ncc(Cl)c(C(=O)Nc2ccc(S(=O)(=O)Nc3ncccn3)cc2)n1	inconclusive: 7.08 µM [inhibitor, single point]	–
CN(C)C(=O)C1CCc2nnc(-c3ccc(Cl)cc3Cl)n21 (stereo unspecified)	inconclusive: 8.91 µM [inhibitor, single point]	–
Cc1oc(C(O)c2ccccc2F)nc1C(=O)Nc1ccc(C(=O)Nc2ccccc2)cc1 (stereo unspecified)	inconclusive: 7.08 µM [inhibitor, partial curve]	–
CC1(O)CCCN(Cc2cc3cc4c(cc3nc2-c2ccc(Cl)cc2)OCO4)C1 (stereo unspecified)	inconclusive: 22.4 µM [inhibitor, partial curve]	–
CN(C)C[C@@H]1CN(Cc2ccncc2)C[C@H]1NC(=O)c1cc(F)cc(F)c1	inconclusive: 3.98 µM [inhibitor, full curve, poor fit]	–
COc1cccc(NC(=O)[C@@H]2C[C@@H](c3cccc(C(F)(F)F)c3)N(Cc3cnn(C)c3)C2)c1	inconclusive: 2.51 µM [inhibitor, full curve]	–
COc1ccc(Nc2ccnc(N3CCCC3C(=O)NCC(F)F)n2)cc1 (stereo unspecified)	–	inactive: -11.3%
COc1ccc(C(=O)N2CCOCC3(CN(Cc4ccccc4)C3)C2)c(OC)n1	inconclusive: 56.2 µM [inhibitor, single point]	–
COC(=O)CNC(=O)C1CCCN(c2nccc(Nc3ccccc3F)n2)C1 (stereo unspecified)	inconclusive: 17.8 µM [inhibitor, partial curve, poor fit]	–
C1CCC(c2nc(CCOCC3CCOCC3)no2)NC1 (stereo unspecified)	–	inactive: -4.5%
CCCCOc1ccc(C(=O)N2CCC(Cc3nc(-c4cnccn4)no3)CC2)cc1	inconclusive: 39.8 µM [inhibitor, single point]	–

From PubChem BioAssay AID1671194 (National Center for Advancing Translational Sciences (NCATS), 2021)
